These are yes or no findings as the source states them, for the method shown. Binding seen in cells or lysates may run through a third protein. Some entries that bind do so weakly or less than the wild type. For part of these data: Sequences can lack the tags named with a protein.
Key:
HA-tagged IRF3 = target: T1, HA-tagged IRF3 (UniProt Q14653); experiment: co-IP; 293T cells cotransfected with Flag- and HA-tagged expression plasmids; NP-40 lysis buffer (20 mM Tris-HCl pH 7.4, 150 mM NaCl, 1 mM EDTA, 1% Nonidet P-40); immunoblotting
T1 sequence: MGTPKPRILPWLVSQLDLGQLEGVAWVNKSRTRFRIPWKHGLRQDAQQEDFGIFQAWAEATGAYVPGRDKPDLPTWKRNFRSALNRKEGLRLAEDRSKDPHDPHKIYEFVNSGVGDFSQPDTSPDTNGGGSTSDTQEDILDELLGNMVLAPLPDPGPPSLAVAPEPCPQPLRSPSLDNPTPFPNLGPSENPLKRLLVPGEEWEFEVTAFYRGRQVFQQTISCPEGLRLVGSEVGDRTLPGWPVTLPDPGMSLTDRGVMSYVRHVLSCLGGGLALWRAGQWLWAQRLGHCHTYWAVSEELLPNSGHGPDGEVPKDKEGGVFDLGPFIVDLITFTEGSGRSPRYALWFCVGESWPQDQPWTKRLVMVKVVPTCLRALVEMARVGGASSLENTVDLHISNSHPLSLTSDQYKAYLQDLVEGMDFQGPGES

By UniProt entry, the sequences of proteins in these tests, tags left out.
UniProt Q7Z434: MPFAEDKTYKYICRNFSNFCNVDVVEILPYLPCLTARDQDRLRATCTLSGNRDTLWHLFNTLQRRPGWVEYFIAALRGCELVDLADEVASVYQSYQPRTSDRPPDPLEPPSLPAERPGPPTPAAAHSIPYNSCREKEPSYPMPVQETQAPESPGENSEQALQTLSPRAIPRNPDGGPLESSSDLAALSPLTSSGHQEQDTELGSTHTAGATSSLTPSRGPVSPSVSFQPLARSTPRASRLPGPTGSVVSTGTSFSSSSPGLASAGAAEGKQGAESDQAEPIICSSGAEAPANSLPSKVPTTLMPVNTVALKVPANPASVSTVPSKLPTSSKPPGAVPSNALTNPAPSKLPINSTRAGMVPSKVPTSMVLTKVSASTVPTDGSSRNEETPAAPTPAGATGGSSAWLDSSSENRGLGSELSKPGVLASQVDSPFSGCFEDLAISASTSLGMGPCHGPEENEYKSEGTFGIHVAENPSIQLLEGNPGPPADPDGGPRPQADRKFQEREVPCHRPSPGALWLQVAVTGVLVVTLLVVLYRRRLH

HA-VISA = HA-VISA (UniProt Q7Z434); experiment: as above
HA-tagged MDA5 = target: T2, HA-tagged MDA5 (UniProt Q9BYX4); experiment: as above
T2 sequence: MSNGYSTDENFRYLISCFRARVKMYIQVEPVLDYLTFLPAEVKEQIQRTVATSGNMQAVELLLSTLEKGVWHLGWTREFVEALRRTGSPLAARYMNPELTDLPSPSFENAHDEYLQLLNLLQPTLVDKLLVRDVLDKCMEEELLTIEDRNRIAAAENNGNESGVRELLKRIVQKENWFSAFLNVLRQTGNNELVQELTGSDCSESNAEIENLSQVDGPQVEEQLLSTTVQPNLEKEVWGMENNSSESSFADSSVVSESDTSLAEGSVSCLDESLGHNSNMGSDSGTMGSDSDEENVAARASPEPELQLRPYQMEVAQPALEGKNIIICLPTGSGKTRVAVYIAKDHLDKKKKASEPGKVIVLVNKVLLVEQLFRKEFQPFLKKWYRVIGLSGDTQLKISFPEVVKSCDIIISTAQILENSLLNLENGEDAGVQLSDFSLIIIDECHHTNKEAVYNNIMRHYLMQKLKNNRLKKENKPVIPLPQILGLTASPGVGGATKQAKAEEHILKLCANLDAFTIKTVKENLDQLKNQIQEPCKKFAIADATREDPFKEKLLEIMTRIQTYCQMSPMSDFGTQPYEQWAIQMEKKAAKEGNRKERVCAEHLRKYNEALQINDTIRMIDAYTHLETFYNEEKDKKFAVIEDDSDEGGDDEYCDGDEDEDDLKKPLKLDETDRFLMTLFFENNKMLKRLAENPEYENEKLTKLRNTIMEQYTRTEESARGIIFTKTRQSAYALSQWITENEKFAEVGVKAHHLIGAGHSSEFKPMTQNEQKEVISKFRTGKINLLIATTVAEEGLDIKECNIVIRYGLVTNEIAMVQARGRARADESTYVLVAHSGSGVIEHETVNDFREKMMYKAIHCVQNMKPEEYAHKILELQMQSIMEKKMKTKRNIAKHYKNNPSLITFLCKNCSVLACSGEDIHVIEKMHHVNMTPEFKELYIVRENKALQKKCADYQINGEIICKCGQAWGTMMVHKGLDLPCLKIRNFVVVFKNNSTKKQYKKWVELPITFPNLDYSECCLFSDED

HA-tagged RIG-I = target: T3, HA-tagged RIG-I (UniProt O95786); experiment: as above
T3 sequence: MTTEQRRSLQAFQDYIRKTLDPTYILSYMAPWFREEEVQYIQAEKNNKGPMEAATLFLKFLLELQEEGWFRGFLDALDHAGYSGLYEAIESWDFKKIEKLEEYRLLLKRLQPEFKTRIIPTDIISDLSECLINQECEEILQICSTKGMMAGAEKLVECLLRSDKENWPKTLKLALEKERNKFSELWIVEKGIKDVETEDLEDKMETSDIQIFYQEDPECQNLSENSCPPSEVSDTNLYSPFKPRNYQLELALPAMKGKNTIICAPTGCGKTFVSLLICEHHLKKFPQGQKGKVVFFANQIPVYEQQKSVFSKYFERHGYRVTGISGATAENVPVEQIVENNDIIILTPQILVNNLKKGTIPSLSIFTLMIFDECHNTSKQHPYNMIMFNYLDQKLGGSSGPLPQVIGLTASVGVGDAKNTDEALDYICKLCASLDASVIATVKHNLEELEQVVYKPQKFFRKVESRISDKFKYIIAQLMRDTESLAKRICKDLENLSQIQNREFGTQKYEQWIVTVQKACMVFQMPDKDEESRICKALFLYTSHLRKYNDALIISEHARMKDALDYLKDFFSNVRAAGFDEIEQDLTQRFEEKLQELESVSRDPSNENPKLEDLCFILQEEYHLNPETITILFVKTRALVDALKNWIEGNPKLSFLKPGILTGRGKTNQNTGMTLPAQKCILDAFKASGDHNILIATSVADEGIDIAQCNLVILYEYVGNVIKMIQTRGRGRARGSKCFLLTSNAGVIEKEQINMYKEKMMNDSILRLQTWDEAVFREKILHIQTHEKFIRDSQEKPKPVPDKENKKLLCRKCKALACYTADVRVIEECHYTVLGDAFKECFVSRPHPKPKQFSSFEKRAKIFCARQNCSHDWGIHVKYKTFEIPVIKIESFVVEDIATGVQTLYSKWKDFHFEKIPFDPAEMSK

[1] = target: VISA (endogenous) (human (endogenous in 293T)) (UniProt Q7Z434); experiment: co-IP
[2] = target: VISA (endogenous) (human (endogenous in 293T)) (UniProt Q7Z434); experiment: co-IP; endogenous proteins; 293T cells (wild-type or GPATCH3-deficient) left uninfected or infected with SeV for the indicated times; NP-40 lysis buffer (20 mM Tris-HCl pH 7.4, 150 mM NaCl, 1 mM EDTA, 1% Nonidet P-40)

B1: Flag-GPATCH3 (G patch domain-containing protein 3) (protein, UniProt Q96I76 1-525)
chain: MAVPGEAEEEATVYLVVSGIPSVLRSAHLRSYFSQFREERGGGFLCFHYRHRPERAPPQAAPNSALIPTDPAAEGQLLSQTSATDVRPLSTRDSTPIQTRTCCCVISVRGLAQAQRLIRMYSGRRWLDSHGTWLPGRCLIRRLRLPTEASGLGSFPFKTRKELQSWKAENEAFTLADLKQLPELNPPVLMPRGNVGTPLRVFLELIRACRLPPRIITQLQLQFPKTGSSRRYGNVPFEYEDSETVEQEELVYTAEGEEIPQGTYLADIPASPCGEPEEEVGKEEEEESHSDEDDDRGEEWERHEALHEDVTGQERTTEQLFEEEIELKWEKGGSGLVFYTDAQFWQEEEGDFDEQTADDWDVDMSVYYDRDGGDKDARDSVQMRLEQRLRDGQEDGSVIERQVGTFERHTKGIGRKVMERQGWAEGQGLGCRCSGVPEALDSDGQHPRCKRGLGYHGEKLQPFGQLKRPRRNGLGLISTIYDEPLPQDQTESLLRRQPPTSMKFRTDMAFVRGSSCASDSPSLPD
Question: Which results are given for B1?
Answer: binding (HA-tagged IRF3): no binding; binding (HA-VISA): binds; binding (HA-tagged MDA5): no binding; binding (HA-tagged RIG-I): no binding

B2: GPATCH3 (endogenous) (protein, UniProt Q96I76 1-525)
chain: MAVPGEAEEEATVYLVVSGIPSVLRSAHLRSYFSQFREERGGGFLCFHYRHRPERAPPQAAPNSALIPTDPAAEGQLLSQTSATDVRPLSTRDSTPIQTRTCCCVISVRGLAQAQRLIRMYSGRRWLDSHGTWLPGRCLIRRLRLPTEASGLGSFPFKTRKELQSWKAENEAFTLADLKQLPELNPPVLMPRGNVGTPLRVFLELIRACRLPPRIITQLQLQFPKTGSSRRYGNVPFEYEDSETVEQEELVYTAEGEEIPQGTYLADIPASPCGEPEEEVGKEEEEESHSDEDDDRGEEWERHEALHEDVTGQERTTEQLFEEEIELKWEKGGSGLVFYTDAQFWQEEEGDFDEQTADDWDVDMSVYYDRDGGDKDARDSVQMRLEQRLRDGQEDGSVIERQVGTFERHTKGIGRKVMERQGWAEGQGLGCRCSGVPEALDSDGQHPRCKRGLGYHGEKLQPFGQLKRPRRNGLGLISTIYDEPLPQDQTESLLRRQPPTSMKFRTDMAFVRGSSCASDSPSLPD
Question: How did the binding [1] turn out when B2 was run?
Answer: binds

Question: And the binding [2]?
Answer: binds

— publication PMC5407853
